Some of the results follow.
system: PfAP2-HC AP2 domain (GST-tagged); assay: gcPBM binding intensity (ln(normalized median fluorescence intensity)); higher = stronger DNA binding
Outline: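 Binding intensity is defined as the maximum Masliner-normalised natural-log median intensity across replicate spots for either probe orientation. It was measured on an Agilent 4 × 180k array of primer-extended double-stranded 36-bp intergenic genomic probes and negative controls, to which GST-tagged P. falciparum DNA-binding domains made in E. coli were applied for 1 h in 1× PBS with 1% milk, 0.2 mg/ml BSA, 0.5% salmon testes DNA and 0.03% Triton X-100. Detection was by Alexa488 anti-GST antibody and scanning at 488 nm.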

Compared with “GCATTTTAATAATTATGTACATATATTATTCCTGGT [XGTACX_site3664]”, “TTCCATCAAAAAATGGGTACACATTATAGAAATATT [XGTACX_site8482]” is lower in “gcPBM binding intensity (ln)” value: 9.75 for the first, 9.45 for the second.

Going from “TATACATATATATATACACACATATATATATATACA [CACACA_site402]” to “ACGCATGTAATTTATACACACATTCTTTTATATTTT [CACACA_site3708]”, the “gcPBM binding intensity (ln)” value rises from 9.8 to 9.87.

Going from “AAATTATTATCGTTAATATGTATATATGTGCCAAGT [TGCATGCA_negctrl_site557]” to “AAAACATACAGATATACACACATATATATATATATA [CACACA_site5091]”, the “gcPBM binding intensity (ln)” value rises from 9.7 to 10.1.

First: ATATTTAAACGATGGTGTACATATATTACAAGTTGT [XGTACX_site1743]
Second: AATATACGAAATTGTGCACACATATATTTATGTATG [CACACA_site1510]
The “gcPBM binding intensity (ln)” value of the first is lower: 9.72 for the first, 10 for the second.

Compared with “TAAAATGAAGGAATATGTACATAAATAAACATATAT [XGTACX_site6266]”, “CATATATGATATATTAGTACATATATATATATATAT [XGTACX_site1574]” is lower in “gcPBM binding intensity (ln)” value: 9.85 for the first, 9.57 for the second.

First: CGATATAAAGATATTAGTACATATGCATGCTTGTCT [XGTACX_site8629]
Second: AATCTAATGTAATGCATACACACAACTATCCATCAA [CACACA_site535]
The “gcPBM binding intensity (ln)” value of the first is lower: 9.67 for the first, 9.85 for the second.

Compared with “AGGTATATATATTTATGTACTTAAAATGAGAAAATA [XGTACX_site8337]”, “CATATACGCAAACACACACACATATATATATATATA [CACACA_site501]” is higher in “gcPBM binding intensity (ln)” value: 9.61 for the first, 11.6 for the second.

Compared with “TATAATAATATTTATTGTACAATTAGGTTAATTCAT [XGTACX_site1986]”, “AAAAATAAAGTAAAAGCATGCTAGTATATGGAAAAT [TGCATGCA_site486]” is higher in “gcPBM binding intensity (ln)” value: 9.52 for the first, 10.2 for the second.

Compared with “TTGAAATTAAATGACATACACACTATATTATATATT [CACACA_site3135]”, “TATCGTTATATAATATGTACATATAAAATTTAAATT [XGTACX_site1887]” is lower in “gcPBM binding intensity (ln)” value: 9.75 for the first, 9.57 for the second.

Going from “AAAATGTATATATAAACATGCACACGTGGTTGTATA [TGCATGCA_site847]” to “TCTTAAATTTCTTTATGTACATAATTAATATATTTA [XGTACX_site4456]”, the “gcPBM binding intensity (ln)” value falls from 9.89 to 9.73.

Compared with “TATATATTATGACCACCACACACCTATACGCATAAC [CACACA_site2447]”, “ATATATATATATATATGTACATATCACTTTAAATAT [XGTACX_site3859]” is lower in “gcPBM binding intensity (ln)” value: 10.1 for the first, 9.81 for the second.

Compared with “TTTTCTTAAAAAATCAAACACACATATATATATACA [CACACA_site2297]”, “ATGATAGTATGTATGAGTACGAAAAAAAAAAATTAA [XGTACX_site32]” is higher in “gcPBM binding intensity (ln)” value: 9.64 for the first, 9.67 for the second.

Compared with “TGTGGGAATAACCACACACACACACCCATATATATA [CACACA_site5876]”, “AAATGCAAATGATGATGTACATACAAAAATTAAATT [XGTACX_site5323]” is lower in “gcPBM binding intensity (ln)” value: 10.7 for the first, 9.86 for the second.

First: CTCAAACAATATTATATAATAAAGTACATATATATT [CACACA_negctrl_site446]
Second: AAAAATAAATATACATGTACTTAAAATAATCGAATA [XGTACX_site8432]
The “gcPBM binding intensity (ln)” value of the first is lower: 9.57 for the first, 9.73 for the second.

Compared with “TATATTTTTATATTTTGTACATATAGTAAATATAAA [XGTACX_site4768]”, “ACGTATCAAAAAATTTGTACATATATATATATATAT [XGTACX_site1024]” is higher in “gcPBM binding intensity (ln)” value: 9.41 for the first, 9.9 for the second.

Compared with “GAACAGAAAAAGAATAGTACATATATATATATATAT [XGTACX_site3700]”, “ATTCAAAATAATAGAATTGTTAAAGTTGTAAATTGA [CACACA_negctrl_site727]” is lower in “gcPBM binding intensity (ln)” value: 9.56 for the first, 9.34 for the second.

Compared with “TATAATATGAACAGTACACACAAAATAAATTCGTAT [CACACA_site3586]”, “AAAAAAAAAGTATTATGTACATAAAAATAAAAAAAT [XGTACX_site4166]” is lower in “gcPBM binding intensity (ln)” value: 9.98 for the first, 9.85 for the second.

First: GTTTATGTTAAACCATGTACTTAATATTTTATTCTT [XGTACX_site3761]
Second: TATGATTCATAATAGTGTACGTAAAAATTGACTAGA [XGTACX_site5376]
The “gcPBM binding intensity (ln)” value of the first is higher: 9.76 for the first, 9.67 for the second.

Compared with “TATTAAAATATGTCAGTTCTTAAAAAGTTGATGAGT [GTGCAC_negctrl_site77]”, “AAAAATATATAAAGAAAAAGAATATAATATAAAATA [GTGCAC_negctrl_site208]” is higher in “gcPBM binding intensity (ln)” value: 9.45 for the first, 9.66 for the second.

First: ATTGTAGAATTTAATAGTACTCACGAATAAAATAAA [XGTACX_site6280]
Second: ACCATGAAAATATTATGTACATATGTATTATATATA [XGTACX_site408]
The “gcPBM binding intensity (ln)” value of the first is lower: 9.49 for the first, 9.64 for the second.

Compared with “GAGTGAGCTAATAAAAGTACGTAATAAACAAACGCA [XGTACX_site131]”, “ATAGCTGTATTTAATACACACAAAACTTTCATTCCA [CACACA_site5868]” is higher in “gcPBM binding intensity (ln)” value: 9.68 for the first, 9.72 for the second.

First: TTTTTTTGTTTTGTTTTTTTTTTTTTTTTTTTTTTG [CACACA_negctrl_site570]
Second: TTACCGTAAAAATTTTGTACATAAAATAATATATAA [XGTACX_site532]
The “gcPBM binding intensity (ln)” value of the first is lower: 9.2 for the first, 9.54 for the second.

From the supplement of paper PMC11417369
